The values that follow come from the supplement of paper PMC11417369.

The other results are listed elsewhere or left out.

In this experiment the test system is PfHDP1 homeodomain (GST-tagged). Description: gcPBM binding intensity (ln(normalized median fluorescence intensity)); higher = stronger DNA binding. In short, it runs like this:
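Binding intensity is the highest Masliner-normalised natural-log median intensity over replicate spots in either probe orientation. To obtain it, GST-tagged P. falciparum DNA-binding domains made in E. coli were incubated for 1 h on an Agilent 4 × 180k array of primer-extended double-stranded 36-bp intergenic genomic probes plus negative controls. Detection used Alexa488 anti-GST antibody with scanning at 488 nm.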
Regarding “TAAACATAAATATACACACAAACATATATGTATTTT [CACACA_site1214]”, the “gcPBM binding intensity (ln)” value was 6.67. The figure for “AAATTATAAATACCTACACACTTATCAAAATAAATT [CACACA_site5280]” is 6.1; for “ACTTATAAAATAACATGTACAAATATTTATTATATA [XGTACX_site133]” it is 6.26; for “AACAAAATAAATGTATGTACATATATATATATATAT [XGTACX_site7974]” it is 9.32. Take “TGGGAGCACAGACACACACACACACCGATATATATA [CACACA_site8001]”: the “gcPBM binding intensity (ln)” value was 8.23.

With “TATATTAAATATTACACACATACATTTAGTGTCAAA [CACACA_site1990]”, the “gcPBM binding intensity (ln)” value was determined as 6.67. “TCCTTACCTATTAAAGCATGCTCGAATATATATTTT [TGCATGCA_site53]”: the “gcPBM binding intensity (ln)” value stood at 7.48. The figure for “GTGGACGAAATAGTTGTAAATTTATGTGCAAACCTC [XGTACX_negctrl_site564]” is 11.2; for “ATATATATATCATATTGTACATACTTGTATTTATAT [XGTACX_site2432]” it is 8.34. “GATGATATATATTAGCGTACATGTATATATACCATT [XGTACX_site6404]”: the “gcPBM binding intensity (ln)” value worked out at 6.61. To “TAAATGAGAAGGACTGCACACTAAAATGGAAGGAGA [CACACA_site8449]” belongs 7.29; to “AAAATTTCAAATAACACACACTAATATATATCTGTA [CACACA_site4904]”, 6.23; to “AATGAATATAGTACTGAATGTAATTTAAGGTTTTCC [CACACA_negctrl_site1548]”, 6.14. As to “GCATAAATCAAACACACACACATATATATATATATA [CACACA_site2422]”, the “gcPBM binding intensity (ln)” value was 9.49. To TATAATGGATGCTAGCTGCACTAATAAGCAAAAATA belongs 6.68; to “ATTTATATATTGCCCACACACATGTGATTATTTATA [CACACA_site1714]”, 7.31; to ATATTAAAAAGAAGTGTGCGCAAAACATTAACTTGA, 8.25.

As to “AATGGATGGTCCAAATGTACATATATATATATATAT [XGTACX_site4800]”, the “gcPBM binding intensity (ln)” value came out at 9.32. In the case of “TAAATAAACCTGACTTGTACATGTAAAATAAATATA [XGTACX_site1667]”, the “gcPBM binding intensity (ln)” value came to 6.23.

As for “ACATAAATAATAAAAACACACATATGTACAGATATA [CACACA_site5112]”, the “gcPBM binding intensity (ln)” value turned out to be 6.92.

In the case of “AATGGTACATGATACACACACGCACATATATATATT [CACACA_site3425]”, the “gcPBM binding intensity (ln)” value turned out to be 6.98. The figure for “ATGTAGATATATATATGTACTAATTAGTAGTTTACG [XGTACX_site6275]” is 6.94; for “AGAAAAAATAAAAATAGTACTCAAAAAATTATGAAT [XGTACX_site4908]” it is 6.24; for “AGAAAAAAAAAACACACACACACACCCTCAATATAA [CACACA_site39]” it is 6.56.

Take “TTAATTATATATAAAAGTACTTATTTTTCCATATAA [XGTACX_site3033]”: the “gcPBM binding intensity (ln)” value was determined as 6.08. Take “TAATAGGAAATTATAGGTACACATACAAATAAATAA [XGTACX_site3587]”: the “gcPBM binding intensity (ln)” value was determined as 6.39. As to “AAAAAAAAAAAAAAAACACACATTTCTTTTTCATAT [CACACA_site11]”, the “gcPBM binding intensity (ln)” value was found to be 6.7. On to “AATAATAATATATGTAGTACACATTTCCATTATGTT [XGTACX_site3708]”, for which the “gcPBM binding intensity (ln)” value came to 6.6. The figure for “TCATTAATCAGGTATGCATGCATAACTATTAAAAAT [TGCATGCA_site90]” is 6.46; for “GTTATAAATGCATATACACACATACGTACATACATA [CACACA_site7655]” it is 7.14; for “TCTTTTTTTTTTATTTGTACTTATTTTTTTCAAAAA [XGTACX_site3403]” it is 6.61.

Consider “AAAATAACGAGTCAAACACACATATTTATATTTATA [CACACA_site7050]”, for which the “gcPBM binding intensity (ln)” value is 6.24. To “TAATATAACTACATAACACACGAAAATATATGAATC [CACACA_site3628]” belongs 6.92; to “AAATAGATAAACTAAACACACAAAAAAAAAAAAAAT [CACACA_site1179]”, 6.35.

As to “TTATATGAAAAAATATGTACGTATAATGAGAAATAT [XGTACX_site8987]”, the “gcPBM binding intensity (ln)” value stood at 7.15. On to “ATACGTATTTTCTTTTGTACATATATATAAAATATT [XGTACX_site2675]”, for which the “gcPBM binding intensity (ln)” value came out at 6.71. To “TTTATTTATTATTAAAGTACTAAAATATATTATTAT [XGTACX_site4887]” belongs 6.24; to “AATATTGCACCATTTTGTACATAATATATTCAAATA [XGTACX_site475]”, 10.3; to “TATATTTATTAGTTTCGTACGTACAAAGTTATTTTT [XGTACX_site8847]”, 6.47.

Regarding “GTAGGTTTATATTGTAGTACATACAAACGTTAACAA [XGTACX_site5476]”, the “gcPBM binding intensity (ln)” value came out at 6.64. For “ACAAAATTGATATATGCACACATATATATATTAAAT [CACACA_site8152]”, the “gcPBM binding intensity (ln)” value was 9.87. The figure for “AATATAATCTTTCAAAAGAAAAAGACTTCATGAAAA [CACACA_negctrl_site1331]” is 6.2. The figure for “ATATACGCATTAATAACACACAATATGATAACAAAT [CACACA_site3623]” is 6.74. As to “TATTTTAATATTTGTAGTACAGATTGAAATGACGAA [XGTACX_site4805]”, the “gcPBM binding intensity (ln)” value turned out to be 6.48. To “TTTTTTTTTGGGGGTGCATGCAAGACATATATTTAA [TGCATGCA_site228]” belongs 9.38.
